The list shows a part of the results.
What was measured:
Experiment in all cases: glycan array binding signal (z-score within array); higher = stronger binding
Conditions in all cases: glycan notation: IUPAC condensed, linker removed
[1] = molecular target: Man(a1-2)Man(a1-3)[Man(a1-2)Man(a1-6)]Man
Summary of the method: (§1)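 The Consortium for Functional Glycomics database supplied 3228 glycan arrays, of which those lacking an available protein sequence were dropped. The binding signal, a within-array Z-score, was averaged across arrays of the same protein sequence and across linkers. Negative scores can be read as non-binding.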

[2] = molecular target: Man(a1-2)Man(a1-3)[Man(a1-2)Man(a1-6)]Man(a1-6)[Man(a1-2)Man(a1-2)Man(a1-3)]Man
Summary of the method: as §1

[3] = molecular target: Man(a1-2)Man(a1-3)[Man(a1-2)Man(a1-6)]Man(a1-6)[Man(a1-2)Man(a1-2)Man(a1-3)]Man(b1-4)GlcNAc(b1-4)GlcNAc
Summary of the method: as §1

[4] = molecular target: Man(a1-2)Man(a1-3)[Man(a1-6)]Man(a1-6)[Man(a1-2)Man(a1-3)]Man(b1-4)GlcNAc(b1-4)GlcNAc
Summary of the method: as §1

[5] = molecular target: Man(a1-2)Man(a1-6)[Man(a1-3)]Man(a1-6)[Man(a1-2)Man(a1-2)Man(a1-3)]Man
Summary of the method: as §1

[6] = molecular target: Man(a1-2)Man(a1-6)[Man(a1-3)]Man(a1-6)[Man(a1-2)Man(a1-2)Man(a1-3)]Man(b1-4)GlcNAc(b1-4)GlcNAc
Summary of the method: as §1

Man(a1-3)[Man(a1-6)]Man = molecular target: Man(a1-3)[Man(a1-6)]Man
Summary of the method: as §1

[7] = molecular target: Man(a1-3)[Man(a1-6)]Man(a1-6)[Man(a1-2)Man(a1-3)]Man(b1-4)GlcNAc(b1-4)GlcNAc
Summary of the method: as §1

[8] = molecular target: Man(a1-3)[Man(a1-6)]Man(a1-6)[Man(a1-3)]Man
Summary of the method: as §1

[9] = molecular target: Man(a1-3)[Man(a1-6)]Man(a1-6)[Man(a1-3)]Man(b1-4)GlcNAc(b1-4)GlcNAc
Summary of the method: as §1

[10] = molecular target: Man(a1-3)[Man(a1-6)]Man(b1-4)GlcNAc(b1-4)GlcNAc
Summary of the method: as §1

[11] = molecular target: Man(a1-3)[Man(a1-6)]Man(b1-4)GlcNAc(b1-4)[Fuc(a1-6)]GlcNAc
Summary of the method: as §1

Man(a1-6)Man = molecular target: Man(a1-6)Man
Summary of the method: as §1

Man(b1-4)GlcNAc = molecular target: Man(b1-4)GlcNAc
Summary of the method: as §1

MurNAc(b1-4)GlcNAc = molecular target: MurNAc(b1-4)GlcNAc
Summary of the method: as §1

Neu5Ac(a2-3)Gal = molecular target: Neu5Ac(a2-3)Gal
Summary of the method: as §1

[12] = molecular target: Neu5Ac(a2-3)Gal(b1-3)GalNAc
Summary of the method: as §1

[13] = molecular target: Neu5Ac(a2-3)Gal(b1-3)GalNAc(b1-3)Gal(a1-4)Gal(b1-4)Glc
Summary of the method: as §1

[14] = molecular target: Neu5Ac(a2-3)Gal(b1-3)GalNAc(b1-4)Gal(b1-4)Glc
Summary of the method: as §1

[15] = molecular target: Neu5Ac(a2-3)Gal(b1-3)GalNAc(b1-4)[Neu5Ac(a2-3)]Gal(b1-4)Glc
Summary of the method: as §1

[16] = molecular target: Neu5Ac(a2-3)Gal(b1-3)GalNAc(b1-4)[Neu5Ac(a2-8)Neu5Ac(a2-3)]Gal(b1-4)Glc
Summary of the method: as §1

[17] = molecular target: Neu5Ac(a2-3)Gal(b1-3)GalNAc6S
Summary of the method: as §1

[18] = molecular target: Neu5Ac(a2-3)Gal(b1-3)GlcNAc
Summary of the method: as §1

[19] = molecular target: Neu5Ac(a2-3)Gal(b1-3)GlcNAc(b1-2)Man
Summary of the method: as §1

[20] = molecular target: Neu5Ac(a2-3)Gal(b1-3)GlcNAc(b1-2)Man(a1-3)[GlcNAc(b1-4)][Neu5Ac(a2-3)Gal(b1-3)GlcNAc(b1-2)Man(a1-6)]Man(b1-4)GlcNAc(b1-4)GlcNAc
Summary of the method: as §1

[21] = molecular target: Neu5Ac(a2-3)Gal(b1-3)GlcNAc(b1-2)Man(a1-3)[Neu5Ac(a2-3)Gal(b1-3)GlcNAc(b1-2)Man(a1-6)]Man(b1-4)GlcNAc(b1-4)GlcNAc
Summary of the method: as §1

[22] = molecular target: Neu5Ac(a2-3)Gal(b1-3)GlcNAc(b1-2)[Neu5Ac(a2-3)Gal(b1-3)GlcNAc(b1-4)]Man(a1-6)[Neu5Ac(a2-3)Gal(b1-3)GlcNAc(b1-2)Man(a1-3)]Man(b1-4)GlcNAc(b1-4)GlcNAc
Summary of the method: as §1

[23] = molecular target: Neu5Ac(a2-3)Gal(b1-3)GlcNAc(b1-3)Gal(b1-3)GlcNAc
Summary of the method: as §1

[24] = molecular target: Neu5Ac(a2-3)Gal(b1-3)GlcNAc(b1-3)Gal(b1-4)GlcNAc
Summary of the method: as §1

[25] = molecular target: Neu5Ac(a2-3)Gal(b1-3)GlcNAc(b1-3)GalNAc
Summary of the method: as §1

[26] = molecular target: Neu5Ac(a2-3)Gal(b1-3)GlcNAc(b1-4)Gal(b1-4)Glc
Summary of the method: as §1

[27] = molecular target: Neu5Ac(a2-3)Gal(b1-3)GlcNAc(b1-6)GalNAc
Summary of the method: as §1

[28] = molecular target: Neu5Ac(a2-3)Gal(b1-3)GlcNAc6S
Summary of the method: as §1

[29] = molecular target: Neu5Ac(a2-3)Gal(b1-3)[Fuc(a1-4)]GlcNAc
Summary of the method: as §1

[30] = molecular target: Neu5Ac(a2-3)Gal(b1-3)[Fuc(a1-4)]GlcNAc(b1-3)Gal(b1-3)[Fuc(a1-4)]GlcNAc
Summary of the method: as §1

[31] = molecular target: Neu5Ac(a2-3)Gal(b1-3)[Fuc(a1-4)]GlcNAc(b1-3)Gal(b1-4)[Fuc(a1-3)]GlcNAc
Summary of the method: as §1

[32] = molecular target: Neu5Ac(a2-3)Gal(b1-3)[GlcNAc(b1-6)]GalNAc
Summary of the method: as §1

[33] = molecular target: Neu5Ac(a2-3)Gal(b1-3)[Neu5Ac(a2-6)]GalNAc
Summary of the method: as §1

B1: DrGal3 (Danio rerio) (protein)
chain: MDLSDALDAPPQQNNQQAGGPVWPGQPANPVWPGQPANPTWPGQPNQPAWPGQPNQQWPGQPGQPTAPGWPGPAPQTGPYGAPGQAPQVLTVPLDFPLQNGAYNKMLITINGEVKPNAKQFTVNLRRGNDIAFHINPRFSEGGKPVIVRNSMIGNNWGREERELPSFPFVPGKPFEMKILITDTEYKVAVNKSHLLEFKHRVFELNQITGLSIYNDVTLSTVNVETLQ
- glycan array binding signal (z-score) [1]: -0.254
- glycan array binding signal (z-score) [2]: -0.252
- glycan array binding signal (z-score) [3]: -0.253
- glycan array binding signal (z-score) [4]: -0.249
- glycan array binding signal (z-score) [5]: -0.241
- glycan array binding signal (z-score) [6]: -0.191
- glycan array binding signal (z-score) (Man(a1-3)[Man(a1-6)]Man): -0.222
- glycan array binding signal (z-score) [7]: -0.182
- glycan array binding signal (z-score) [8]: -0.265
- glycan array binding signal (z-score) [9]: -0.265
- glycan array binding signal (z-score) [10]: -0.225
- glycan array binding signal (z-score) [11]: -0.239
- glycan array binding signal (z-score) (Man(a1-6)Man): -0.257
- glycan array binding signal (z-score) (Man(b1-4)GlcNAc): -0.176
- glycan array binding signal (z-score) (MurNAc(b1-4)GlcNAc): -0.132
- glycan array binding signal (z-score) (Neu5Ac(a2-3)Gal): -0.229
- glycan array binding signal (z-score) [12]: -0.24
- glycan array binding signal (z-score) [13]: -0.259
- glycan array binding signal (z-score) [14]: -0.238
- glycan array binding signal (z-score) [15]: -0.246
- glycan array binding signal (z-score) [16]: -0.283
- glycan array binding signal (z-score) [17]: -0.266
- glycan array binding signal (z-score) [18]: -0.241
- glycan array binding signal (z-score) [19]: -0.256
- glycan array binding signal (z-score) [20]: -0.271
- glycan array binding signal (z-score) [21]: -0.226
- glycan array binding signal (z-score) [22]: -0.228
- glycan array binding signal (z-score) [23]: -0.282
- glycan array binding signal (z-score) [24]: -0.2
- glycan array binding signal (z-score) [25]: -0.28
- glycan array binding signal (z-score) [26]: -0.296
- glycan array binding signal (z-score) [27]: -0.284
- glycan array binding signal (z-score) [28]: -0.172
- glycan array binding signal (z-score) [29]: -0.238
- glycan array binding signal (z-score) [30]: -0.249
- glycan array binding signal (z-score) [31]: -0.268
- glycan array binding signal (z-score) [32]: -0.195
- glycan array binding signal (z-score) [33]: -0.239
